Source: the supplement of paper PMC3334620
Whole data set: some 33,000 sequences, median “E-score (-0.5 to 0.5)” near -0.016, cut for the highest 2% near 0.31. The list shows a part of the results.

molecular target: Cst6 (UniProt P40535); assay: PBM E-score (8-mer binding enrichment) (E-score (-0.5 to 0.5)); higher = stronger / more preferred TF binding; most listed sequences are background and not binding sites; settings: protein concentration: 200 nM; construct: GST-DNA-binding domain
Method in brief: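 Yeast transcription factors, full-length or as DNA-binding domains, were expressed with a GST tag using PURExpress in vitro transcription/translation. At about 100-200 nM they were applied to universal all-10-mer Agilent arrays, double-stranded by primer extension on fresh or once-stripped slides. Fluorescent anti-GST detected bound protein, and masliner normalised the scans. E-scores for ungapped eight-base words, pooled with reverse complements, came from the Universal PBM Analysis Suite.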

Row | Sequence | PBM E-score
1 | AGCCCGCG | -0.191
2 | AATGTATG | 0.203
3 | ATTTTTTA | 0.325
4 | ATCTGCCG | 0.071
5 | CGGGGTAA | -0.0205
6 | CCATCCAA | -0.0877
7 | CATTCGGA | 0.0454
8 | ACAATTTC | 0.163
9 | CGTGCTAC | -0.0255
10 | ACCTGGTC | -0.188
11 | CAAGTAAA | 0.0858
12 | CGTTGTTC | 0.00842
13 | CTGGTAGA | -0.0329
14 | CCACACGC | -0.0522
15 | GACCACGC | -0.177
16 | TCTCGCCA | -0.0276
17 | CGTTGAAC | 0.00319
18 | GGGTGGTA | -0.108
19 | AGCGATAA | 0.028
20 | ACAGGCCT | -0.236
21 | CGTAACAC | 0.171
22 | CTTAGAGC | 0.0236
23 | AGCTTCCA | -0.103
24 | ACAGAGGT | -0.0808
25 | GACCAGTA | -0.231

Row | Sequence | PBM E-score
26 | CCAACTTC | -0.0772
27 | ACCCCCAG | -0.43
28 | GTGAATTA | 0.241
29 | GCTTCCGA | -0.0873
30 | CTCTGTAA | 0.0656
31 | ATATGGTG | 0.0972
32 | CACCTACC | -0.123
33 | CAGAAAAA | 0.106
34 | CGGGTTTA | 0.0511
35 | AGCGGGGA | -0.135
36 | ACACCGCT | -0.255
37 | CATTCTAG | -0.032
38 | ATCTCGAG | -0.054
39 | GGGCTAAA | -0.0976
40 | GCTAGGAA | -0.177
41 | CCTACGCG | -0.155
42 | AGTGCTCG | -0.136
43 | CCAACAGA | -0.0906
44 | AGAGGCAA | -0.0175
45 | GAGCAATC | -0.0982
46 | GGAGGCCA | -0.314
47 | ACCTTCTA | -0.0342
48 | GCCCCATA | -0.143
49 | ACACGTAC | -0.0236
50 | CAACGGTC | -0.132

Row | Sequence | PBM E-score
51 | AGAGGCGA | -0.00133
52 | AATTTAAA | 0.223
53 | GCTTGGAA | -0.0522
54 | AGGTAATG | 0.101
55 | GGACCTAC | -0.243
56 | CACAGAGG | -0.187
57 | ACACTTCG | 0.171
58 | CCTGGCCG | -0.262
59 | AAATTTCT | 0.0445
60 | CCTATGCA | -0.0716
61 | CTCGTGAC | 0.299
62 | ACGACCAA | 0.0474
63 | GTCTATCA | -0.0111
64 | CCGGGGAC | -0.385
65 | ACAGGAAA | 0.15
66 | ACCTCGAA | -0.0292
67 | ACATGATA | 0.255
68 | ATTAGCCA | -0.0351
69 | ACATTACC | 0.153
70 | ACGTAGCC | -0.0377
71 | ATTTAAGA | 0.0665
72 | GGGCTTAC | -0.0179
73 | AAGGTGTG | -0.0231
74 | CCCCTCAA | -0.0665
75 | CTACGTCC | -0.0878

Row | Sequence | PBM E-score
76 | GTACCCCA | -0.156
77 | ACAGGGCT | -0.184
78 | GTGCAGCA | -0.275
79 | CATGGGCA | -0.252
80 | AATTCACG | 0.18
81 | CCCGTGGC | -0.385
82 | GCCACCTA | -0.151
83 | AATCCAAA | 0.0929
84 | GCAAGTGA | 0.0628
85 | TAGGACAA | -0.0158
86 | AGGTTACA | 0.0162
87 | GCTGTTCA | -0.0453
88 | ACAGAATA | 0.079
89 | GAATACAC | 0.0278
90 | CGCTCTAG | -0.325
91 | CAGGACGA | -0.0441
92 | AGGTTCCC | -0.278
93 | AAACTGCA | 0.0554
94 | CAGTATTA | 0.153
95 | ACGAGAAT | 0.156
96 | AATTGACC | 0.0447
97 | CGCACTAG | -0.141
98 | CTATCCCC | -0.316
99 | AACATCCC | -0.227
100 | GGGACGCA | -0.173

Row | Sequence | PBM E-score
101 | AAGTAGGG | 0.037
102 | CAACCTAC | -0.0893
103 | AACTTTTC | 0.122
104 | AGGGCCGG | -0.242
105 | AACTGGGC | -0.3
106 | CCCTATCA | -0.126
107 | ACAATTGT | 0.0529
108 | ACCTATGA | 0.116
109 | AGTAACCA | -0.0188
110 | AACCACTC | -0.119
111 | CGAGCGAC | -0.141
112 | AAGCATCT | -0.166
113 | AACTAACA | 0.225
114 | AATATCCG | 0.177
115 | GTCAGTAA | 0.104
116 | ACCGGAAG | 0.088
117 | AGAGCTAT | -0.122
118 | CCTACTGC | -0.051
119 | CATCCCTA | -0.234
120 | GTCTACAC | -0.129
121 | GTCTGGGA | -0.281
122 | AAATAGAA | 0.0809
123 | CCCTTGGC | -0.364
124 | AAATATTC | 0.221
125 | GGGTAACC | -0.203

Row | Sequence | PBM E-score
126 | CGAGTAAA | 0.0647
127 | CATGCAGA | 0.09
128 | AATCGTAT | 0.192
129 | CTAGGCTA | -0.304
130 | AGCGGCAC | 0.123
131 | AGGTGTAG | -0.248
132 | CGCGTTTC | -0.155
133 | AGCGGTGC | -0.211
134 | GATATTAC | 0.352
135 | AGAACACG | 0.0964
136 | AACGCGTA | 0.0257
137 | GGCCGAGA | -0.00676
138 | TGCTGGAA | 0.0991
139 | ACCTTGCC | -0.0201
140 | ACGCCAAC | 0.137
141 | GGCGTTGA | 0.0502
142 | CAACACAG | 0.0389
143 | GTTACTGA | 0.151
144 | CGGTTGAG | 0.0903
145 | GAGTCGCC | -0.199
146 | ACTATTCC | -0.00938
147 | ATGTGCGG | 0.113
148 | GGTACTGA | -0.0525
149 | CGATTTAG | 0.167
150 | GGCACTAC | -0.0488

Row | Sequence | PBM E-score
151 | AAGTCGGT | -0.171
152 | GCGCTAAA | 0.125
153 | GTTCGTTA | 0.133
154 | ATAGTGAA | -0.00864
155 | CGGACAAC | 0.0404
156 | CCCGAGCA | -0.224
157 | GAGTACAA | 0.0583
158 | GACATGGC | -0.133
159 | CATACCCG | 0.0134
160 | GGAATCAA | -0.0386
161 | ACACGCCC | -0.261
162 | CCAAGTGC | -0.205
163 | GACCCGGA | -0.271
164 | TCCCAAGA | -0.00618
165 | GTAATGCA | 0.171
166 | GACCGGCA | -0.202
167 | GTGATGAA | 0.154
168 | ACCTACAC | -0.169
169 | CCAGAGTC | -0.12
170 | GTAACGCA | 0.189
171 | ATTCAGTA | 0.164
172 | ACACGGGT | -0.0314
